Laboratory results from the supplement of paper PMC3334620.
Whole data set: some 33,000 sequences, median “E-score (-0.5 to 0.5)” near -0.036, cut for the highest 2% near 0.37. Some of the results follow.

biological target: T1, Yer064c (UniProt P40041); assay: PBM E-score (8-mer binding enrichment) (E-score (-0.5 to 0.5)); higher = stronger / more preferred TF binding; most listed sequences are background and not binding sites; settings: protein concentration: 200 nM; construct: GST-full length
T1 sequence: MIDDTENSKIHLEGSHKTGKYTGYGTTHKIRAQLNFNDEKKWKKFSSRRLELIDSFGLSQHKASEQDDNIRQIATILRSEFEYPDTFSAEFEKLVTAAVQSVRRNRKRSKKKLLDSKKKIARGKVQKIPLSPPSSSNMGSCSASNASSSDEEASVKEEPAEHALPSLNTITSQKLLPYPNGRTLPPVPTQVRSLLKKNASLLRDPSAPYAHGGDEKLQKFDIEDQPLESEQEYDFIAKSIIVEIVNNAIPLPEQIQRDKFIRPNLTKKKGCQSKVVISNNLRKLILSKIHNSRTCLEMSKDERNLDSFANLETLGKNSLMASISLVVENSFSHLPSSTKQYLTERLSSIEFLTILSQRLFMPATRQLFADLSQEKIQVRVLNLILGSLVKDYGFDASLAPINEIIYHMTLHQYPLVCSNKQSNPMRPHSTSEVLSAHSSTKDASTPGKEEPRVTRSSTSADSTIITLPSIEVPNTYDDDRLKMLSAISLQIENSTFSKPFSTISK
Method in brief: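 Masliner-normalised scans of fluorescent anti-GST signal were the basis for scoring. That signal came from GST-tagged yeast transcription factors applied at about 100-200 nM to double-stranded universal all-10-mer Agilent arrays on fresh or once-stripped slides. Each ungapped eight-base word, pooled with its reverse complement, received an E-score from the Universal PBM Analysis Suite.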

| Sequence | PBM E-score |
| --- | --- |
| GCAGCTTA | -0.189 |
| ACGAGTTA | 0.123 |
| CCCCAAGA | -0.112 |
| AATGCCTC | -0.232 |
| CAGCCGTC | -0.0182 |
| ATTGTATG | 0.0759 |
| CGCTATTC | -0.0435 |
| ATACCGCC | -0.133 |
| ATCTGGCC | -0.262 |
| GTCTTGTA | 0.0119 |
| TAATTGCA | -0.0278 |
| GTCTAGAC | -0.0147 |
| CCTCCCAC | -0.165 |
| TAATGGTA | -0.0906 |
| GTAAGTAC | 0.0516 |
| CTTATGCA | 0.0241 |
| AGATTACC | 0.239 |
| ACCAAATC | 0.0245 |
| AGGTTCTC | -0.184 |
| CTTCGGCA | 0.0471 |
| GCCTGCTA | -0.258 |
| CCACCCAC | -0.183 |
| AGTGAGGC | -0.165 |
| AGCACGAA | 0.11 |
| GACATATA | -0.0355 |

| Sequence | PBM E-score |
| --- | --- |
| TCAAACGA | 0.229 |
| CACGGACA | -0.24 |
| TACTGCGA | 0.0149 |
| CATTTTAC | 0.121 |
| ATTCATTC | 0.122 |
| AGGCCCCT | -0.378 |
| AGCCATAA | 0.186 |
| AGACATCC | 0.189 |
| GAGACTTA | 0.24 |
| AAGCGTAA | -0.0511 |
| CTCCATGA | 0.134 |
| CAATTGAA | -0.198 |
| GTTATGAA | -0.13 |
| ACGTGCAG | -0.194 |
| CCGTTGCA | -0.0729 |
| ACCTACCG | -0.192 |
| CGCTGAAG | 0.00255 |
| AACTCCTT | -0.00991 |
| CTGGATGC | -0.189 |
| ATCAATTG | 0.121 |
| GCCACCCA | -0.051 |
| CTCTTTGA | 0.0535 |
| ACCTCGCG | 0.00016 |
| ATGAAGGA | 0.0837 |
| AAGAATCG | 0.0843 |

| Sequence | PBM E-score |
| --- | --- |
| GACAACGC | -0.208 |
| CCTGATGA | 0.104 |
| AGCGTCAG | -0.0539 |
| ACTTCGTA | 0.00344 |
| ACTTACCC | 0.201 |
| TAAGCCGA | 0.0556 |
| AAGTGAGC | 0.0966 |
| ACGACCTG | 0.0259 |
| CCCACACA | -0.217 |
| GGGGATGA | 0.0364 |
| CAAACAAC | 0.121 |
| ATAAACCC | 0.151 |
| ACTTCTGA | 0.191 |
| GTAAGCTA | -0.0372 |
| ACTACCTC | 0.102 |
| CACAAAAA | 0.102 |
| ATATGAAG | -0.0157 |
| CACTAGCC | 0.082 |
| ATGTGCAA | -0.01 |
| CATACCAG | 0.0548 |
| GCTGGTTA | 0.0367 |
| ATGTCGCC | -0.162 |
| AAAGTTAG | 0.173 |
| TAAGTAAA | 0.177 |
| AGGAAATG | -0.0289 |

| Sequence | PBM E-score |
| --- | --- |
| AACAGCTC | -0.0521 |
| GCGCCCCA | -0.229 |
| AGCAGGTG | -0.22 |
| ACGATTAT | 0.103 |
| AACCGCCT | 0.082 |
| ACAGTTTG | -0.275 |
| CAGTTGCG | 0.0733 |
| AAGCTAAA | -0.0363 |
| AGCGGGCA | -0.02 |
| ATTTTGAG | 0.243 |
| CGGTCACC | -0.0952 |
| CAAGCCAG | -0.139 |
| AGCCTATC | -0.028 |
| CAAATGGA | 0.0747 |
| ACTGTACG | 0.00106 |
| ATAACGTG | -0.112 |
| ACACTGGT | -0.098 |
| AATCCACC | 0.0457 |
| CGAGCCAG | 0.115 |
| CCGTACAA | 0.0328 |
| CGTGCTCC | -0.197 |
| GCTCCATA | -0.235 |
| ACCCCGGG | -0.152 |
| GGGAGTCA | 0.477 |
| ATTATCGG | 0.032 |

| Sequence | PBM E-score |
| --- | --- |
| GACAGAAC | -0.091 |
| ACCCCATG | -0.151 |
| ATAACCAT | 0.136 |
| CTGCAAGA | 0.0764 |
| CAAAGAAA | 0.153 |
| TTCCGGAA | -0.124 |
| GACTCTCC | 0.411 |
| AAATCCGT | -0.139 |
| GACTGACA | 0.298 |
| AAGCTACT | -0.0193 |
| AGAGTCCA | 0.262 |
| ATTCGGTG | 0.0151 |
| ACCTTGCG | -0.129 |
| CTACCGGC | -0.115 |
| CAATGAGC | -0.113 |
| AAGTCATT | 0.454 |
| AGAGGTAG | -0.265 |
| TATAAAAA | 0.202 |
| AGTCGCCC | 0.403 |
| ACCGCTAC | -0.142 |
| CGAGCCCA | 0.0412 |
| CGGCGTCC | -0.164 |
| GTAAAACA | -0.0301 |
| AGTAGTTA | 0.112 |
| CTCGAGAA | 0.106 |

| Sequence | PBM E-score |
| --- | --- |
| CGCTATGA | 0.181 |
| ATGCTAGG | -0.18 |
| AGTCGGAT | 0.282 |
| CGGCATCA | -0.242 |
| GCTGGTAA | 0.106 |
| ATAAGGAT | -0.0841 |
| CGTAATGA | 0.0697 |
| CTTGAAGA | 0.135 |
| ACAGCTTA | 0.0266 |
| ACTATACA | 0.0522 |
| TAATATGA | 0.209 |
| CGAGGGTA | -0.154 |
| TGATCCAA | 0.0557 |
| AAGTGGCC | -0.33 |
| ATTGCGTA | 0.102 |
| AATGACGT | -0.00627 |
| ATAGCTAT | 0.0423 |
| CATCCGCG | -0.111 |
| AAGTACTA | 0.0859 |
| GTCTGACA | 0.195 |
| ACGCGTCA | 0.111 |
| GAATCCGC | 0.00832 |
| ACCCAGGG | -0.187 |
| TAACATCA | 0.156 |
| CCGACCGC | -0.317 |

| Sequence | PBM E-score |
| --- | --- |
| TAGGACGA | 0.131 |
| AGACCGTG | -0.0409 |
| ACGTGAGC | -0.0418 |
| AATCTACT | 0.0949 |
| GCATCGAA | -0.284 |
| GCATCACA | -0.114 |
| GTCTTGCA | 0.0404 |
| AGCTCGCC | -0.063 |
| ATTCGTGG | 0.186 |
| CTGCGGGA | -0.0999 |
| GCCTACAC | -0.141 |
| CGAAACAG | 0.0527 |
| TGCGTGAA | 0.00044 |
| AACACCGA | -0.126 |
| AAGGGGTA | -0.176 |
| GCTACCAC | -0.0822 |
| CAGCTGTC | -0.00962 |
| AGGTGCAT | -0.109 |
| AGACATGC | 0.0914 |
| AACTCTCC | -0.159 |
| AAACTCAT | 0.286 |
| AGCCACAC | 0.112 |
| CGACTACG | 0.337 |
| CTGATACA | 0.0545 |
| CGCAGATC | -0.143 |

| Sequence | PBM E-score |
| --- | --- |
| CGAGTCAA | 0.444 |
| TAAACTCA | 0.201 |
| CGGCGCCG | -0.125 |
| ATGCATGA | 0.166 |
| CTAGACTC | 0.212 |
| AAGCCTAA | -0.0456 |
| CAATTGTG | 0.0199 |
| AAGTCTCC | 0.107 |
| CATGAGCA | -0.00331 |
| ATACCGTC | -0.126 |
| CTTCATTA | 0.119 |
| CGACATGA | 0.231 |
| TAGCTTCA | -0.2 |
| GGACCAAC | -0.131 |
| AGCTGACG | -0.134 |
| ATATTCTA | 0.0462 |
| CGAGGTAC | 0.0931 |
| AAATGGGC | -0.187 |
| CTACTTCC | -0.0232 |
| TAGTGATA | -0.161 |
| CATATGTA | 0.0706 |
| CTGTCCTC | -0.159 |
| ACGCTACG | -0.135 |
| GACGTAGC | -0.183 |
| GTATGTGA | 0.204 |

| Sequence | PBM E-score |
| --- | --- |
| CGTAAACA | -0.0207 |
| GTCAGGTA | 0.199 |
| ATAGAGCA | -0.176 |
| ACACCCAG | -0.0229 |
| TCCCTTCA | 0.091 |
| AACATCGG | -0.223 |
| CTATCCAA | 0.0707 |
| AATAAGGG | -0.169 |
| AGCATCTA | -0.197 |
| GGCACCTA | -0.227 |
| CACATCGG | 0.122 |
| AGTAATTC | -0.0585 |
| AGTCGAGC | 0.0697 |
| AAACATTG | -0.0364 |
| AGAGAATA | 0.0687 |
| GCAGCCTA | -0.315 |
| GTGCATTA | -9e-05 |
| TGTATACA | 0.112 |
| CGAATCCA | -0.00595 |
